# Laboratory results from PubChem BioAssay AID1745845 (National Center for Advancing Translational Sciences (NCATS), 2022).
# The campaign covered roughly 360,000 compounds. About 2,600 (0.72%) were called active. Inconclusive results, whose numbers are uncertain, are shown with a selection of clear calls. The call rests on the fitted dose curve; in most records, active means well fitted inhibition curve with a large enough effect; inconclusive means small, poorly fitted or top-dose-only effect; inactive means no such curve, though single readings can be large or run the other way. Where the call is inconclusive, the potency comes from a doubtful curve fit.
# Test: Primary qHTS for Inhibitors of ATXN expression; further: nearly all actives have a fitted effect of over 55% in size
# Conditions: HEK-293 ATXN2-luciferase reporter, luminescence, 24 h; series mostly up to 57 µM
# How it was run: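 qHTS (up to 57 uM final) was run with 24 h compound exposure of reporter cells at 37 °C. Each well was multiplexed: SteadyGlo luminescence measured ATXN2-luciferase expression after a fluorogenic Gly-Phe-AFC viability readout (25 uM final).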
# Potency means the concentration at half of the fitted maximal effect; tags describe the fitted curve by direction and shape.
row,Compound,Potency
1,CCOC(=O)c1cnc2c(OC)cccc2c1N1CCN(c2ccc(OC)cc2)CC1,"inconclusive: 12.6 µM [inhibitor, partial curve, poor fit]"
2,Cc1ccc(S(=O)(=O)NCc2ccccn2)c(C)c1,inactive
3,COc1ccc(/C=N/Nc2cc(N3CCCC3)nc(N3CCCC3)n2)cc1,active: 14.1 µM
4,CC1(Cc2cccc(F)c2)C(=O)Nc2ccc(OC(F)(F)F)cc21 (stereo unspecified),"inconclusive: 28.2 µM [inhibitor, partial curve, poor fit]"
5,CN(C(=O)CSc1nnc(-c2ccc(F)cc2)c2ccccc12)C1CCS(=O)(=O)C1 (stereo unspecified),inactive
6,COc1cc(CCC(=O)OCC(=O)Nc2cccc(S(=O)(=O)N(C)C)c2)cc(OC)c1OC,inactive
7,C=CCn1c(C)cc(C(=O)CSc2nnc3n(CCC)c(=O)c4ccccc4n23)c1C,inactive
8,COc1ccc(NS(=O)(=O)c2cc(OC)ccc2OC)cc1,inactive
9,COc1ccc(N2CCN(C(=O)COc3ncnc4ccccc34)CC2)cc1,inactive
10,CCn1c(/C=C/N(C)c2ccccc2)[n+](CC)c2ccc(Cl)cc21,"inconclusive: 20 µM [inhibitor, partial curve, poor fit]"
11,CCN(c1ccc(C(=O)CN2C(=O)NC3(CCOc4ccccc43)C2=O)cc1)S(C)(=O)=O (stereo unspecified),inactive
12,Cc1ccc2[nH]c(=O)c(COC(=O)c3cccs3)cc2c1,"inconclusive: 39.8 µM [inhibitor, partial curve, poor fit]"
13,CC(C)(N)c1ccc(-c2nc3ccccc3nc2-c2ccccc2)cc1,"inconclusive: 24.3 µM [inhibitor, partial curve]"
14,COc1cc2ncn(-c3cc(OCc4ccccc4C(F)(F)F)c(C(N)=O)s3)c2cc1OC,"inconclusive: 15.3 µM [inhibitor, partial curve]"
15,N#Cc1ccc(-c2ccc(Cl)cc2)nc1SCC(=O)c1cccc(Cl)c1,"inconclusive: 15.8 µM [inhibitor, partial curve]"
16,COc1ccc(Nc2cc(C)c3cc(NC(=O)c4cc(OC)cc(OC)c4)ccc3n2)cc1,"inconclusive: 14.1 µM [inhibitor, partial curve]"
17,CCCNC(=S)NC1CCCC1,inactive
18,Cc1cccc(N2CC(O)=C(c3nc4ccccc4n3C)C2=N)c1,inactive
19,CCOC(=O)CSC1=NC(=O)/C(=C\c2ccc(Cl)cc2)S1,active: 25.1 µM
20,Cc1cc(C)c(C#N)c(SCc2nnc(-c3ccccc3)o2)n1,"inconclusive: 25.1 µM [inhibitor, single point]"
21,Cc1ccsc1/C=C(\C(=O)c1ccc(OC(C)C)cc1)c1nc2ccccc2o1,"inconclusive: 0.336 µM [inhibitor, partial curve, poor fit]"
